Values joined by “and” are separate entries in the source; they are usually repeats but may differ in a detail not shown here. Identical values can stand only once. Among all 410,000 compounds or so, about 6,400 (1.6%) were called active. Inconclusive means that the source gave no clear call. Such entries were picked first, then a sample of the others. The call rests on the fitted dose curve; in most records, active means well fitted inhibition curve with a large enough effect; inconclusive means small, poorly fitted or top-dose-only effect; inactive means no such curve, though single readings can be large or run the other way. Where the call is inconclusive, the potency comes from a doubtful curve fit.
Target: Glucagon-like peptide 1 receptor (Homo sapiens) (UniProt P43220)
UniProt P43220, sequence (P43220 whole entry, looked up): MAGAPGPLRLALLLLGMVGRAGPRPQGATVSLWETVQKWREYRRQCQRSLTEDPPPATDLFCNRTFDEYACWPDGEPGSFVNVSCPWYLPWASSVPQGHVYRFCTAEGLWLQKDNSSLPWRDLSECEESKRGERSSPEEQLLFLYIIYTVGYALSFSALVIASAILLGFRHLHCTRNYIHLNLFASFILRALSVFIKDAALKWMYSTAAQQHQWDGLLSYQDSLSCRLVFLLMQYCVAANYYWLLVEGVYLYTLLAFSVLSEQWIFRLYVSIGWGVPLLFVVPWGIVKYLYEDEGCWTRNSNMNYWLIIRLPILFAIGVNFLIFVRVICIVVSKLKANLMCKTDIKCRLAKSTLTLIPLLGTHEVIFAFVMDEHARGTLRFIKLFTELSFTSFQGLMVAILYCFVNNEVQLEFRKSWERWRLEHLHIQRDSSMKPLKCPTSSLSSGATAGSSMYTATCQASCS
Test: qHTS of GLP-1 Receptor Inverse Agonists (Inhibition Mode); further: nearly all actives have a fitted effect of over 55% in size
Conditions: HEK293 GLP-1R CRE-luciferase, luminescence, 24 h, GLP-1R form is constitutively active; activity change, negative = inhibition: at 38.3 µM (top of the series) unless noted
Summary of the method: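 Inverse agonism was detected as reduced cAMP-driven luciferase luminescence after 24 h compound treatment. The cells were HEK293 clones expressing constitutively active human GLP-1R with the reporter. Reporter-only and GPR119 cell lines served as counterscreen controls.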
On the % scale 0 is the no-effect control and ±100 the full control effect; potency means the concentration at half of the fitted maximal effect; tags describe the fitted curve by direction and shape.

Compound	Potency	activity change, negative = inhibition
COc1cc(OC)c(OC)cc1/C=N/NC(=O)CC1C(=O)NN=C1C (configuration not stated)	inactive	
CCC(C)n1c(SCc2c(F)cccc2Cl)nc2ccsc2c1=O (configuration not stated)	inconclusive: 6.31 µM [inhibitor, partial curve, poor fit]	
COc1ccc(N2CCN(S(=O)(=O)c3ccc4c(c3)CCCN4C(C)=O)CC2)cc1	inactive	
COc1ccccc1NC(=O)COC(=O)C12CC3CC(CC(Cl)(C3)C1)C2	inconclusive: 7.94 µM [inhibitor, partial curve, poor fit]	
Cc1ccc(NC(=O)c2cc(N3C(=O)C4CC=CCC4C3=O)ccc2N2CCOCC2)cc1Cl (configuration not stated)	inconclusive: 11.2 µM [inhibitor, partial curve, poor fit]	
Cc1ccc2occ(/C=N/NC(=O)c3ccccc3Br)c(=O)c2c1	inconclusive: 6.31 µM [inhibitor, partial curve, poor fit]	
Cc1ccc(C)c(COC(=O)c2cc([N+](=O)[O-])ccc2N2CCOCC2)c1	inconclusive: 10 µM [inhibitor, partial curve, poor fit]	
Cc1ccc(-c2nc3cc(NC(=O)C(C)C)ccc3o2)cc1	inconclusive: 3.16 µM [inhibitor, partial curve]	
CCOC(=O)C1CCN(Cc2cn[nH]c2-c2ccc(C)cc2)CC1	inconclusive: 28.2 µM [inhibitor, single point]	
CCn1ncc([N+](=O)[O-])c1C(=O)n1nc(C)cc1C	inactive	
CCOC(=O)c1ccc(NC(=O)CSc2nnc(CNC(=O)c3ccc(OC)cc3)n2CC)cc1	inactive	
OCCNc1ncnc2c1ncn2[C@H]1CN(Cc2cccs2)C[C@@H](CO)O1	inactive	
COc1ccc(Nc2nc3cc(Cl)c(Cl)cc3n3cnnc23)cc1Cl	inactive	
Cc1ccc(N2C(=O)C3C4C=CC(CC4)C3C2=O)cc1Br (configuration not stated)	inconclusive: 3.98 µM [inhibitor, full curve, poor fit]	
CCCCN(C)CCNC(=O)c1ccc2c(c1)NC(=O)C(N1CCCCC1)S2 (configuration not stated)	inconclusive: 11.2 µM [inhibitor, partial curve, poor fit]	
COc1ccc(CCNS(=O)(=O)CCNC(=O)c2ccccc2)cc1	inactive	
O=C(CCSCc1cccc(F)c1)NCc1ccc(F)cc1	inconclusive: 10 µM [inhibitor, partial curve, poor fit]	
CC(CCc1ccccc1)NC(=O)C1CCN(S(=O)(=O)c2ccc(F)cc2)CC1 (configuration not stated)	inconclusive: 11.2 µM [inhibitor, partial curve, poor fit]	
CN1CCN(S(=O)(=O)c2ccc(SCCOc3ccccc3)nc2)CC1	inconclusive: 22.4 µM [inhibitor, single point]	
Cc1nonc1NC(=O)CSc1nc2ccccc2o1	inconclusive: 28.2 µM [inhibitor, single point]	
O=C(Nc1ccc(F)cc1F)c1cccc(S(=O)(=O)N2CCCCC2)c1	inconclusive: 11.2 µM [inhibitor, partial curve, poor fit]	

Compound	Potency	activity change, negative = inhibition
O=c1[nH]c2cc3c(cc2cc1CN(Cc1cccnc1)Cc1nnnn1Cc1ccco1)OCCO3	inactive	
CC(=O)Nc1ccc(NC(=O)Cn2cc3c(n2)CCCCC3)cc1	inactive	
Cc1ccc2c(CC(=O)N3CCN(c4cccc(Cl)c4)CC3)coc2c1C	inconclusive: 28.2 µM [inhibitor, single point]	
COc1ccc(S(=O)(=O)N2CCCC2CNC(=O)C(=O)NCc2ccc3c(c2)OCO3)cc1 (configuration not stated)	inconclusive: 28.2 µM [inhibitor, single point]	
O=C(CC1C(=O)NCCN1C(=O)Nc1ccccc1)Nc1cccc(Cl)c1 (configuration not stated)	inconclusive: 28.2 µM [inhibitor, single point]	
CCOC(=O)Nc1ccc2c(c1)C(=NNC(N)=S)c1ccccc1-2	inconclusive: 3.55 µM [inhibitor, full curve, poor fit]	
COc1ccccc1CNc1nc(NCc2ccc(C(C)C)cc2)c2sccc2n1	inconclusive: 10 µM [inhibitor, partial curve, poor fit]	
O=C1c2c(O)ccc(O)c2C(=O)c2c(NCCNCCO)ccc(NCCNCCO)c21	inconclusive: 316 nM [inhibitor, full curve, poor fit] and inconclusive: 35.5 µM [inhibitor, partial curve, poor fit]	
CC(C)Oc1ccc(CNC(=O)c2ccc(CS(=O)Cc3ccccc3Cl)o2)cc1 (configuration not stated)	inconclusive: 28.2 µM [inhibitor, single point]	
C=CCc1ccc(OCC(O)CN2CCc3ccccc3C2)c(OC)c1 (configuration not stated)	inconclusive: 12.6 µM [inhibitor, partial curve, poor fit]	
Cc1cn2c(=O)cc(COC(=O)c3cccc(NC(=O)COc4ccccc4)c3)nc2s1	inconclusive: 31.6 µM [inhibitor, single point]	
CCOc1ccc(NC(=O)CN(C)C(=O)c2ccc(COc3ccccc3)cc2)cc1OCC	inconclusive: 11.2 µM [inhibitor, partial curve, poor fit]	
CCCC(C(=O)NCC1CCCO1)N(Cc1ccco1)C(=O)CNS(=O)(=O)c1ccccc1 (configuration not stated)	inactive	
CCOC(=O)c1c(NC(=O)CSc2cn(CCNC(=O)c3ccc(OC)c(OC)c3)c3ccccc23)sc2c1CCC2	inactive	
COC(=O)C1CCN(Cc2ccc(OCCCN3CCN(c4ccc([N+](=O)[O-])cc4)CC3)cc2)CC1	inconclusive: 8.91 µM [inhibitor, partial curve, poor fit]	
CCC1CCC2(CC1)NC(=O)N(CC(=O)NCc1ccc(Cl)cc1)C2=O (configuration not stated)	inconclusive: 28.2 µM [inhibitor, single point]	
CCOC(=O)C(C)(C)N(Cc1cccc(C)c1)S(=O)(=O)c1cccc([N+](=O)[O-])c1	inconclusive: 15.8 µM [inhibitor, partial curve, poor fit]	
Cc1cc2cc(CNC(=O)Nc3ccccc3)ccc2[nH]1	inconclusive: 12.6 µM [inhibitor, single point]	
CSc1cccc(Nc2ccc(S(=O)(=O)N3CCOCC3)cc2[N+](=O)[O-])c1	inconclusive: 28.2 µM [inhibitor, single point]	
CCCCN(CC)CCNC(=O)c1cc2c(=O)[nH]c3ccc(C)cc3c2s1		inconclusive: -88.2% [inhibitor]
CCOc1ccc(OCC(O)CN2CCc3ccccc3C2)cc1 (configuration not stated)	inconclusive: 28.2 µM [inhibitor, single point]	

Compound	Potency	activity change, negative = inhibition
COc1ccc(NS(=O)(=O)c2cc(N)ccc2N2CCOCC2)cc1	inactive	
O=C(Nc1ccc(F)c(Cl)c1)c1cc(C2CCCCN2C(=O)c2cccs2)on1 (configuration not stated)	inconclusive: 3.55 µM [inhibitor, full curve]	
CCOc1cc(C(=O)N2CCC(CC3CC(c4ccc(Cl)cc4)=NO3)(C(=O)NCC3CCCCC3)CC2)cc(OCC)c1OCC (configuration not stated)	inconclusive: 7.94 µM [inhibitor, partial curve, poor fit]	
Cc1ccnc(NS(=O)(=O)c2ccc(Oc3ccccc3)cc2)c1	inactive	
CCc1ccc(C(=O)NNC(=O)C2CCN(c3ncnc4sc(C)c(C)c34)CC2)cc1	active: 10 µM	
FC(F)(F)c1ccc2c(c1)ncc1c(-c3ccccc3)nn(-c3ccccc3)c12	inactive	
O=C(N[C@@H]1CCC(=O)N(CC[C@H](Oc2ccccc2)c2ccccc2)CC1)OCc1ccccc1	inconclusive: 28.2 µM [inhibitor, single point]	
CCOc1ccc2[nH]c3c(NCC(C)C)ncnc3c2c1	inconclusive: 1.58 µM [inhibitor, full curve, poor fit]	
COc1ccc(NC(=O)c2ccc3c(c2)N(Cc2cccc(Cl)c2)C(=O)c2ccccc2S3(=O)=O)cc1Cl	inconclusive: 3.16 µM [inhibitor, partial curve, poor fit]	
O=C(CSc1nnc(Cc2ccc3c(c2)OCO3)n1C1CCCCC1)NC1CCCC1	inconclusive: 7.94 µM [inhibitor, partial curve, poor fit]	
Cc1ccnc(NC(=O)c2ccc3c(c2)NC(=O)C(C)S3)c1 (configuration not stated)	inconclusive: 11.2 µM [inhibitor, partial curve, poor fit]	
O=C(Nc1ccc(NC(=O)C2CC2)nc1)c1ccccn1	inconclusive: 5.01 µM [inhibitor, full curve, poor fit]	
COc1cccc(NC(=O)CN(C)C(=O)c2cc(-c3ccco3)nc3ccccc23)c1	inactive	
O=C1C2C3C=CC(C3)C2C(=O)N1CCN1CCN(S(=O)(=O)c2ccc3ccccc3c2)CC1 (configuration not stated)	active: 11.2 µM	
COc1cc(C(=O)N2CCc3c([nH]c4ccccc34)C2c2ccc(F)cc2)cc(OC)c1OC (configuration not stated)	inconclusive: 28.2 µM [inhibitor, single point]	
c1ccc(-n2nnnc2Sc2n[nH]c(-c3ccncc3)n2)cc1	inactive	
COc1ccc(-c2csc(NC(=O)c3cc(C)oc3C)n2)cc1OC	inconclusive: 12.6 µM [inhibitor, single point]	
COc1ccc(CCNCc2c(OC)ccc3ccccc23)cc1OC	inconclusive: 20 µM [inhibitor, single point]	
COc1ccccc1N1CCN(/N=C/C=C/c2ccccc2[N+](=O)[O-])CC1	inconclusive: 7.94 µM [inhibitor, partial curve, poor fit]	
COc1ccc(CNc2nc3c(c(=O)n(Cc4ccc(F)cc4)c(=O)n3C)n2C)cc1	inconclusive: 7.94 µM [inhibitor, partial curve, poor fit]	

From PubChem BioAssay AID624417 (National Center for Advancing Translational Sciences (NCATS), 2012)
